This note sets out measurements from paper PMC4336329 (PLoS ONE, 2015).

In all, about 310,000 compounds went through this assay and about 14,000 (4.5%) showed an effect of 50% or more. The effect is printed as a negative number. This is one part of the list.
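Note: peak tail current of the secondary pulse compared with the same well before compound.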

This experiment deals with human ether-à-go-go-related gene (hERG) potassium channel (human, UniProt Q12809). Kind of experiment: primary screen, population patch clamp on CHO cells stably expressing hERG.
Sequence of human ether-à-go-go-related gene (hERG) potassium channel (Q12809 whole entry, looked up): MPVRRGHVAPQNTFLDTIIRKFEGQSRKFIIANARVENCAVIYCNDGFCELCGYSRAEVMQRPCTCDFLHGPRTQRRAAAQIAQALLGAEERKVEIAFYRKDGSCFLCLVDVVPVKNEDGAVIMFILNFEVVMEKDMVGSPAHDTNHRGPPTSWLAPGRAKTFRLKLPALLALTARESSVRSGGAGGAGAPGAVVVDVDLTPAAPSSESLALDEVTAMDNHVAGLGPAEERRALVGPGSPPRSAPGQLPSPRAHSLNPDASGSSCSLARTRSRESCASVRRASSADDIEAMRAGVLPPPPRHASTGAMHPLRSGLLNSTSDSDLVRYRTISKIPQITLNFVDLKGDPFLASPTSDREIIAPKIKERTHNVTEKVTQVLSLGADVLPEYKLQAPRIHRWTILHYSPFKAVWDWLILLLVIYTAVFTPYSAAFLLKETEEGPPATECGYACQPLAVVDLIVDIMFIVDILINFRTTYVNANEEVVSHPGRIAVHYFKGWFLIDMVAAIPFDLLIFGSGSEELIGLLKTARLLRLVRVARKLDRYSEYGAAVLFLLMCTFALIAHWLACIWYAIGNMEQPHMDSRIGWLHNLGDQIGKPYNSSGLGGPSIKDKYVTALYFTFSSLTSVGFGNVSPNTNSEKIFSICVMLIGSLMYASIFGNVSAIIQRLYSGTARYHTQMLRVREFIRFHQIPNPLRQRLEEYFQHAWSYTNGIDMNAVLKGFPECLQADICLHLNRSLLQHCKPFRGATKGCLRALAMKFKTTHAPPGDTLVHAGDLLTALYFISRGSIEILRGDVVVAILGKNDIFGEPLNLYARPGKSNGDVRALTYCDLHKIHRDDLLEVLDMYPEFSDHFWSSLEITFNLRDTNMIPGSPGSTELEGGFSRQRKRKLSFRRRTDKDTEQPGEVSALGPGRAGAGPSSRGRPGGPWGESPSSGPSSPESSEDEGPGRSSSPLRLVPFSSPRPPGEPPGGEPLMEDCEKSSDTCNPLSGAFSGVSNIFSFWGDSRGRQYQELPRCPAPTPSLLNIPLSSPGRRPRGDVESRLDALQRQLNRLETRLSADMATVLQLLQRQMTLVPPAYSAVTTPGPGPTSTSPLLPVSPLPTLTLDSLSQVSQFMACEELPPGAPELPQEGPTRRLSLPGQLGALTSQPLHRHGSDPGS
As to `CCC(CC)C(=O)NCc1cccnc1`, the “hERG current change (%, negative = inhibition) at 10uM” value was found to be 9.85%. As for `Cc1ccc(C(=O)O)cc1S(=O)(=O)N1CCSCC1`, the figure is 9.81%; as for `O=C(Cc1cc(=O)oc2cc(O)ccc12)N[C@@H](Cc1c[nH]c2ccccc12)C(=O)O`, 11.1%; as for `CNC(=O)COC(=O)c1cc(=O)[nH]c2ccccc12`, 8.36%. As for `C=CCSc1nnc(NC(=O)CSc2nc(CCC)cc(=O)[nH]2)s1`, the figure is 1.71%; as for `O=C(COC(=O)Cn1cnc2ccccc21)NCCCc1ccccc1`, 5.4%; as for `O=P(O)(OCc1ccccc1)OCc1ccccc1`, 12.1%. As for `CCOC(=O)c1ccc(NC(=O)CN2CCc3ccccc3C2)cc1`, the figure is -33%; as for `O=C(NCc1ccccc1)c1ccc(C2SCC(=O)N2Cc2ccccc2)cc1` (centres unmarked), -12.6%; as for `CC(=O)Oc1cccc2c1C(=O)c1c(OC(C)=O)cc(C(=O)O)cc1C2=O`, 12.3%. In the case of `Cc1occc1C(=O)NNC(=O)C1CC1`, the “hERG current change (%, negative = inhibition) at 10uM” value was found to be 16.3%. As for `CC1(NC(=O)C2CCN(C(=O)Nc3ccccc3)CC2)CCS(=O)(=O)C1` (centres unmarked), the figure is -7.07%. As for `O=C(Nc1ccc(Cl)c(Cl)c1)Nc1nnc(CSc2ccccc2)s1`, the “hERG current change (%, negative = inhibition) at 10uM” value came out at 2.67%.

As for `O=S(=O)(c1ccccc1)N(Cc1cccc(F)c1)c1ccccc1`, the “hERG current change (%, negative = inhibition) at 10uM” value was 26.2%. As for `S=C(Nc1ccccc1Oc1ccccc1)NC1CCCC1`, the figure is -0.79%; as for `Nc1nonc1C(=O)N/N=C/c1ccc(-c2ccc(Cl)c(C(=O)O)c2)o1`, 5.51%; as for `Cc1occc1C(=O)NCc1ccc2c(c1)OCO2`, 7%. On to `CSc1nc(-c2ccc(Cl)cc2)nn1S(=O)(=O)c1ccccc1`, for which the “hERG current change (%, negative = inhibition) at 10uM” value was -1.41%. With `C[C@@H](C(=O)OCC(=O)NCCc1ccc(S(N)(=O)=O)cc1)N1C(=O)C2CCCCC2C1=O` (some centres unmarked), the “hERG current change (%, negative = inhibition) at 10uM” value was 5.32%. Turning to `COc1cccc(CN2CCC(Oc3ccc(C(=O)N4CCCCC4)cc3)CC2)c1O`, the “hERG current change (%, negative = inhibition) at 10uM” value was -20.9%. With `COc1cccc(NS(=O)(=O)c2cc3c4c(c2)CCC(=O)N4CCC3)c1`, the “hERG current change (%, negative = inhibition) at 10uM” value is listed as -17.1%. As for `CCOC(=O)Nc1ccc(OC)c([N+](=O)[O-])c1`, the figure is 23.9%. As for `Cc1nc2sc3c(c2c(=O)n1N)CCC3`, the figure is 20.4%. As for `FC(F)c1nc2ccccc2[nH]1`, the figure is 12.8%.

Regarding `CCOc1cc(/C=C2/C(=O)NC(=O)N(c3ccc(CC)cc3)C2=O)ccc1OC(=O)c1cccs1`, the “hERG current change (%, negative = inhibition) at 10uM” value turned out to be 7.48%.

For `CC(C)(C)OC(=O)N1CCC(Cc2cc(-c3cccnc3)no2)(C(=O)O)CC1`, the “hERG current change (%, negative = inhibition) at 10uM” value is -1.97%. In the case of `O=C(c1ccc(Cl)cc1)N1CCN=C1c1ccccc1`, the “hERG current change (%, negative = inhibition) at 10uM” value is -10.7%. As for `CCCNC(=O)Cn1cnc2sc(C(=O)NCCCN3CCOCC3)c(C)c2c1=O`, the figure is 4.36%; as for `Cc1ccc(CN2C(=O)N/C(=C/c3ccc(-c4ccc(C(=O)O)cc4)o3)C2=O)cc1`, 0.0417%. As for `O=C(C1=C[C@@H](C2CCCCC2)C[C@@H](OCCCCO)O1)N1CCN(Cc2ccccc2)CC1`, the figure is -50.1%; as for `Cc1ccc(C(C)C)c(OCCNCCc2ccccc2)c1.O=C(O)C(=O)O`, -17.3%; as for `CCCCCC(=O)N=Nc1c(O)[nH]c2ccc([N+](=O)[O-])cc12`, -6.74%. As for `COc1cc(C(=O)NC2CCN(Cc3nnnn3Cc3cccs3)CC2)cc(OC)c1OC`, the figure is -5.59%; as for `Cc1oc2c(C)c3oc(=O)c(CCC(=O)NCCCN4CCOCC4)c(C)c3cc2c1C`, -6.99%. Regarding `Cn1c(=O)c(C(=O)COC(=O)c2cc(-c3ccco3)nc3ccccc23)c(N)n(Cc2ccccc2)c1=O`, the “hERG current change (%, negative = inhibition) at 10uM” value is -12.2%. `Cn1c(N)c(S(=O)(=O)N2CCN(c3ccccc3Cl)CC2)c(=O)n(C)c1=O`: the “hERG current change (%, negative = inhibition) at 10uM” value is reported as -7.2%.

Regarding `CC(C)(OC1OC(CO)C(O)C(O)C1O)[C@H]1Oc2ccc3ccc(=O)oc3c2[C@H]1O` (some centres unmarked), the “hERG current change (%, negative = inhibition) at 10uM” value was determined as 14.6%. Turning to `COc1cc(/C=C/C(=O)N2CCN(c3ccccn3)CC2)cc(OC)c1OC`, the “hERG current change (%, negative = inhibition) at 10uM” value is recorded as -5.21%. As for `CCCS(=O)(=O)N1CCC(C(=O)N2CCOCC2)CC1`, the figure is -3.88%; as for `CCOC(=O)C(C)(C)Oc1cccc2c1S(=O)(=O)c1ccccc1-2`, 0.739%; as for `O=C(Nc1ccc(S(=O)(=O)NCc2ccco2)cc1)c1ccc(F)cc1`, -4.23%. As to `Cc1ccc(C(=O)c2c3ccc([N+](=O)[O-])cc3[n+]([O-])n2CCCC(N)=O)cc1`, the “hERG current change (%, negative = inhibition) at 10uM” value is -36.6%. Consider `Cc1cc(=O)[nH]c(SCC2(O)C3CC4CC(C3)CC2C4)n1` (centres unmarked), for which the “hERG current change (%, negative = inhibition) at 10uM” value is reported as 23%. In the case of `CCOc1ccc(-n2c(=O)c3sccc3n(CC(=O)NCC3CCCO3)c2=O)cc1` (centres unmarked), the “hERG current change (%, negative = inhibition) at 10uM” value stood at 16.5%.
